Hit rate of the full screen: of about 310,000 compounds, about 14,000 (4.5%) showed an effect of 50% or more. Effects have a minus sign here. Some of the results follow.
The compounds below were run against human ether-à-go-go-related gene (hERG) potassium channel (human, UniProt Q12809) (assay: primary screen, population patch clamp on CHO cells stably expressing hERG).
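Further: peak tail current of the secondary pulse compared with the same well before compound.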

human ether-à-go-go-related gene (hERG) potassium channel, sequence (Q12809 whole entry, looked up): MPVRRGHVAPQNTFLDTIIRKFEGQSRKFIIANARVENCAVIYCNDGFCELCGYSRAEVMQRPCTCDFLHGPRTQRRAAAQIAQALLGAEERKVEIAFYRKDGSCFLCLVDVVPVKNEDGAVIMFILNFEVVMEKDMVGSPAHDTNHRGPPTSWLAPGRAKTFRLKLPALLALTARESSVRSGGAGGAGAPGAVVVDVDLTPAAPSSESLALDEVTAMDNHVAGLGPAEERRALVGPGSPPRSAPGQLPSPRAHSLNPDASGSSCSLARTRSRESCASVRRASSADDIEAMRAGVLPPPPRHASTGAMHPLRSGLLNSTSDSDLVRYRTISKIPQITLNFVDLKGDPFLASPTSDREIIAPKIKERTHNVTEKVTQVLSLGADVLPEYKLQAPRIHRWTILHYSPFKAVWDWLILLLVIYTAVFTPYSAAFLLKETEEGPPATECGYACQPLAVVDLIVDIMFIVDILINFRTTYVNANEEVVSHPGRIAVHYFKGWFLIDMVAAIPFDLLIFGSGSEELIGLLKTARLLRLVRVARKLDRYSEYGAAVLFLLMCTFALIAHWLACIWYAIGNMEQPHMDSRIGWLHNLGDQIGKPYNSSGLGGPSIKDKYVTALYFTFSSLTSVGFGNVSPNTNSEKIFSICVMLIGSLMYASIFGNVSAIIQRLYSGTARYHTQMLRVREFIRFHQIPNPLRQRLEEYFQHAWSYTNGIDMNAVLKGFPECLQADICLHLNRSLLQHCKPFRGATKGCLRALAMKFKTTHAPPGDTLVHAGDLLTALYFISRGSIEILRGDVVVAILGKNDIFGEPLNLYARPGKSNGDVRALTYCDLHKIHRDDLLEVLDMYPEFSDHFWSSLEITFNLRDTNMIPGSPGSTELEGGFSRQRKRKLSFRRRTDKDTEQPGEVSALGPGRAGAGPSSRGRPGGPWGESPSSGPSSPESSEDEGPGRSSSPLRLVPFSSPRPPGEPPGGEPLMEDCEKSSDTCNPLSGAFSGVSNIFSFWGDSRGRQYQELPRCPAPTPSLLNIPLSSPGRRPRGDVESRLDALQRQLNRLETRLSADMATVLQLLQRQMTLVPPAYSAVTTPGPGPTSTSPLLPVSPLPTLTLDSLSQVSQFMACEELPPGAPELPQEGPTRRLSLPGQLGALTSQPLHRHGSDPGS

SMILES | hERG current change (%, negative = inhibition) at 10uM [%]
O=c1c2ccccc2nc(COc2ccccc2)n1/N=C/c1cn[nH]c1-c1ccccc1 | 3.39
O=C(c1ccc(Cn2cc(Cl)c([N+](=O)[O-])n2)cc1)N1CCN(Cc2ccccc2)CC1 | -12.5
O=P(c1ccccc1)(c1ccccc1)C(O)c1ccco1 (stereo not drawn) | -1.06
CCOc1ccc(NC(=O)C2CCN(S(=O)(=O)c3ccc4c(c3)C(C)(C)C(=O)N4C)CC2)cc1 | 11.2
COc1ccc(NS(=O)(=O)c2ccc(N3CCOCC3)c(NC(=O)c3ccco3)c2)cc1 | 30.3
N#Cc1cccc(S(=O)(=O)NCC(=O)NCc2ccc3c(c2)OCO3)c1 | 5.51
O=C(CC1(O)C(=O)c2ccccc2C1=O)c1ccccc1 | 9.5
O=C(O)CN1CCN(c2ncc(C(F)(F)F)cc2Cl)CC1 | 11.6
COC(=O)CCC(=O)c1oc2ccc(Br)cc2c1N | 2.16
CC(C)CNC(=O)[C@H](Cc1ccccc1)NC(=O)c1cccs1 | 13.3
Cc1ccc(C)c(NC(=O)COc2cccc3c2CCN(Cc2ccccc2C)C3=O)c1 | 14.9
Cc1ccc(S(=O)(=O)N/N=C\c2cn(CC(N)=O)c3ccccc23)cc1 | 5.13
O=C(CSc1ccccc1)Nc1ccc(C(=O)Nc2cccc(O)c2)cc1 | 24.7
[O-][N+]12CCCCC1CCCC2CO (stereo not drawn) | 5.38
CC(c1ccc(C(C)(C)C)cc1)S(=O)CC(O)CO (stereo not drawn) | 11.4
CCOc1ccccc1-n1nnnc1SCC(=O)NCC1(N2CCOCC2)CCCCC1 | -67.7
S=c1[nH]c2cnccc2n1Cc1ccccc1 | 12.4
CCCCN1C(=O)/C(=C/C=C2/C=Cc3ccccc3N2CC)SC1=S | 5.02
O=C(/C=C/c1ncc(C(F)(F)F)cc1Cl)OCc1ccccc1 | 6.37
CC(C)(C)OC(=O)N[C@@H](C(=O)OC(C)(C)C)c1ccc2c(c1)OCO2 | -4.85
CC(=O)c1cccc(NC(=O)c2cc(-c3ccco3)on2)c1 | -11.6
COc1ccc(CN(Cc2cc3cc(C)ccc3[nH]c2=O)C(=O)N(C)C)cc1 | -9.97
CCn1c(SCC(=O)NC2CCCCC2)nnc1C(C)NC(=O)c1ccccc1F (stereo not drawn) | -6.74
Cc1cc(C(=O)Nc2ccc3ccccc3c2)oc1C | -68.1

Source: PMC4336329 (PLoS ONE, 2015)
